Experimental data: PMC4242493
This is one part of the list. The list includes weakly bound sequences.

The sequences below were run against MaxL homodimer (UniProt P61244) (assay: universal protein-binding microarray (PBM)). Settings: PBS-based mixture, 10 nM His-tagged protein dimer, 2% milk, 200 ng/uL BSA, 50 ng/uL salmon testes DNA, 0.02% TX-100; detection with Alexa 488 anti-His …; high values mean tight binding; most listed sequences are background and not binding sites; double strand, one strand shown.
UniProt P61244, sequence (P61244 whole entry): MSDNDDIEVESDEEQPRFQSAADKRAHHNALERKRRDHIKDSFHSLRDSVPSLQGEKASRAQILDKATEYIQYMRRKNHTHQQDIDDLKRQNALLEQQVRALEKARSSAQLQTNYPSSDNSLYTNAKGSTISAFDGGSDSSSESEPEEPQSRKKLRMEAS

Sequence | binding signal (normalized occupancy)
CACGGACG | 0.0738
CGTCTGTC | 0.0743
GATTTAAC | 0.0749
CCCGCCCG | 0.0736
AGCGGCCT | 0.0637
ACATGCCC | 0.099
ACCAGCCG | 0.0682
CTGCATTC | 0.0735
GTTTACGA | 0.0775
AAGACAAA | 0.0719
AGAAGACA | 0.0717
ATCTTGCA | 0.0764
GAGATGTA | 0.082
ACATAATC | 0.0854
CTAGACAA | 0.0707
AACGGCCT | 0.0683
AGGATCAG | 0.0761
AAATTGAA | 0.0797
ATTCGATG | 0.0756
CAAGCAAG | 0.0683
AGAAGTTC | 0.0713
ATACTAGG | 0.0737
ACGTGCGG | 0.0927
CTGTTCAA | 0.0728
GGCTACGA | 0.0741

Sequence | binding signal (normalized occupancy)
AATCACCG | 0.0745
TCAGACAA | 0.0792
AGCATTAA | 0.0798
TGCCTAAA | 0.0754
CCCTTACC | 0.0812
GTGCCAGA | 0.0767
AACATCAG | 0.0766
CCACTGCG | 0.0721
CGCCTTAC | 0.0702
TTGGACAA | 0.0731
TAGCCAAA | 0.0759
GTGCTACA | 0.0815
AGCCTACG | 0.0686
ATTTAAAT | 0.0763
AAAGGTCG | 0.0715
CTGTTGGA | 0.0705
GCCAGCGC | 0.069
AAAGGTGT | 0.0816
AACACTCA | 0.0784
CTCCTCAA | 0.0745
TGCACCCA | 0.0807
AGGCGATA | 0.0741
AGCACACC | 0.0876
AGTTCATA | 0.0826
AAGACTAC | 0.0705

Sequence | binding signal (normalized occupancy)
GTTCTTCA | 0.0702
ACCTTGGG | 0.074
ATCATAAT | 0.0881
AGACGTAG | 0.0724
TGCGCGCA | 0.0844
GCGTGGGA | 0.125
ATTCCGCA | 0.0727
CGACATCC | 0.0767
GGGCGGTA | 0.0721
ATCATCGA | 0.0825
CTAGCCCC | 0.0838
AAGTGTCC | 0.0701
AGACGGAC | 0.0693
CTCCGGTA | 0.0742
CCTAGTTA | 0.0692
AAGGCCTA | 0.0709
CCCCACTA | 0.0843
CCCAGAGG | 0.0704
CATACCAG | 0.0756
CCCTGCAA | 0.0774
ACTACACA | 0.0891
CTTGGCAC | 0.0753
ATAAGCAC | 0.0818
CAATCGCC | 0.0761
GCTACCGA | 0.0693

Sequence | binding signal (normalized occupancy)
AATTGGAA | 0.0749
CGTCTGAA | 0.0727
GGACGCAA | 0.0745
AAGTGCTC | 0.072
GCTTGGAA | 0.0702
ATTGTCAC | 0.0832
CTTGGTGA | 0.074
AAATTCAG | 0.0699
ATCTGCAT | 0.0878
AGGATGCC | 0.078
TAAGGTCA | 0.0838
ATCCTCAA | 0.0756
ACGGCTTG | 0.0691
CTGCGATA | 0.071
AGTTGCTG | 0.0707
GCTCGGTA | 0.0731
AATCTGGT | 0.0735
GGCGGCGA | 0.071
TGGCCTAA | 0.0782
ACATGATC | 0.101
ATACCTCC | 0.0869
GACGCTGA | 0.0692
CTCAAAAG | 0.0757
AAGATCAA | 0.075
CTCGCGGC | 0.0764

Sequence | binding signal (normalized occupancy)
AATCGCGT | 0.0845
CGCGACTA | 0.071
ACTCGAAG | 0.0695
CTTGTGTA | 0.0811
GCCATAGC | 0.0735
AAACAGTA | 0.0764
AGTATTGA | 0.0782
AGCCCAAG | 0.072
GAAAGGGC | 0.068
TAGAGGGA | 0.0769
AGAGAATC | 0.0732
TTGATAAA | 0.0794
ACATGAAC | 0.0866
GAGTTGTA | 0.0751
GATACCAC | 0.0803
CATACATA | 0.0846
ATGATGCA | 0.0844
ACTGATCC | 0.0713
AACCTACG | 0.0753
GTTAAGCA | 0.0767
ACCGTGAC | 0.0781
AACGGCCA | 0.0706
ATACTTAC | 0.0835
TCAAGTCA | 0.0804
CGTAGTGA | 0.0792

Sequence | binding signal (normalized occupancy)
AATGCGAC | 0.0782
CTCGGACA | 0.0765
AGGCAGGG | 0.0722
AGGGTGTC | 0.0762
CCTTAATA | 0.074
ACTTACAA | 0.0743
AATTAGAA | 0.0776
AACGACTT | 0.0709
ATCGGAAG | 0.0744
TATGATGA | 0.0814
CTTCTTCC | 0.0714
GTTTTAGA | 0.072
CACCGAGG | 0.0722
CCGTGCAG | 0.0778
ACAAACGG | 0.0723
ATAGTGGA | 0.0774
TCCGAAAA | 0.0774
ACGGTAAG | 0.0742
AAATCACC | 0.081
CTTCCCGA | 0.0703
GTTCTGCA | 0.0806
CCGATACG | 0.075
AGAAAGTC | 0.0723
CCGAATTC | 0.0698
AGCTCCTC | 0.0721

Sequence | binding signal (normalized occupancy)
CCTTCTTC | 0.0732
AAGTCTAG | 0.0703
AAGTAGTC | 0.0719
AGAGTCCT | 0.0696
GATCATCC | 0.0784
GGCCCCAC | 0.0779
AGGAAACT | 0.0669
TATGGTCA | 0.0805
GCTAGTAC | 0.0709
TAGTGTAA | 0.0707
AAGTGGGT | 0.0752
ATCTGGAA | 0.074
ATGGATGC | 0.082
GGCAGCCC | 0.0701
CTCTAGAC | 0.0718
CCACGCCC | 0.0948
CCCCTTTA | 0.0738
AAGTCTAA | 0.0755
CACGCGTC | 0.119
ACAAAGCA | 0.069
CCTGATAA | 0.0778
CAGATCAC | 0.0735
CCTATTCC | 0.0779
CGGTTACC | 0.0722
AAAATATA | 0.0799

Sequence | binding signal (normalized occupancy)
CACAAGGC | 0.0814
GTTCCTCA | 0.0726
CAGATTAG | 0.0772
CGGACCTC | 0.0706
CAGCCTAG | 0.0649
CATTGCAA | 0.0755
ATGGTATA | 0.0853
ACCTATAA | 0.0797
CTGGAAAC | 0.0752
CCTGGGGA | 0.0698
CCCTTCGA | 0.073
CATGGCCA | 0.0803
ACGCCTAG | 0.0726
CTTGAGTC | 0.0726
AAATGGAG | 0.0774
CCCATCCA | 0.0805
ATCCTAAG | 0.0734
AAAGACAG | 0.0731
AGACGTTC | 0.0744
ATGGTCGA | 0.0786
GGCCATGA | 0.0847
CACTTATG | 0.0845
CAGGATCG | 0.0765
CGAATTAC | 0.0717
GCTTACTA | 0.072

Sequence | binding signal (normalized occupancy)
CTTGTCGC | 0.0664
GTCATTGA | 0.0813
ACCAAAGA | 0.0752
CGGGCGGA | 0.0678
ATGCCTTC | 0.0784
TACGAACA | 0.0754
CCACCATC | 0.0768
ATGATGCG | 0.0869
CCCTGGAA | 0.0745
GTAAAGAC | 0.0723
AGGACACG | 0.0852
GCGTGCCA | 0.09
AACTCTGC | 0.0676
GGTGTTAA | 0.077
AGAGTGTA | 0.0771
ACCCGGCC | 0.0668
ACGATTAA | 0.0772
CCCCCGCA | 0.0822
ACGAGTGC | 0.0801
CAGGGGAG | 0.0786
CCGCGCAG | 0.0685
AATAGTAT | 0.0751
ACGGATCT | 0.0718
ACTTTTCG | 0.0723
CCTAGCCC | 0.075

Sequence | binding signal (normalized occupancy)
CGAATTCA | 0.0686
AGCCACCA | 0.0809
CCTGGAGC | 0.0701
ATCACTTG | 0.0778
CCCACCTA | 0.0786
TGTAGTAA | 0.0863
GTTTGCGA | 0.0718
AGCTTTCG | 0.0672
TAGGAGAA | 0.0739
CAGGAGGG | 0.0751
GAGCTACA | 0.0796
CCATACTC | 0.0805
GGTTGACA | 0.0758
CTATTCTC | 0.0763
CCATGGCA | 0.0891
ACGATGCT | 0.0793
GCACATAC | 0.0803
TACTTTAA | 0.0765
CAATGCAG | 0.0809
AATCCCGT | 0.081
CCCCGAAG | 0.0731
AGCCGTCA | 0.0708
CGAACGAC | 0.0697
CTTTCTGC | 0.0723
AATTGCCG | 0.0718

Sequence | binding signal (normalized occupancy)
CCGTTACA | 0.0742
CACGTCGG | 0.0826
AATCAACA | 0.0833
AACGCGAC | 0.0746
GGTTACGA | 0.0721
GAAGTTTA | 0.0695
ACCCGGGA | 0.07
ATGATTAG | 0.0832
ACAAATGC | 0.0787
ACTTCTTA | 0.0765
CAATAGAG | 0.0767
AGGGTTTA | 0.0765
ATTTAGTA | 0.0699
CCAAAAAA | 0.0749
TGGAAACA | 0.081
ACCTCGGC | 0.0711
ACCTCGGG | 0.0783
CAGTTCAA | 0.0741
GGTGCAAA | 0.0755
AATGGTGA | 0.0751
CGGATGCC | 0.0725
GCCTTAGA | 0.0722
TCTGACAA | 0.0733
AAATTCGT | 0.0752
CACTATCC | 0.0788

Sequence | binding signal (normalized occupancy)
CCAACCCG | 0.0709
ATCGTCAC | 0.0829
AGGATACC | 0.0753
AGGAGTGA | 0.0707
GAAAAATA | 0.0777
ACGTCTTC | 0.0758
AAAACAAA | 0.0701
CAGCCCAC | 0.0757
CTATATTC | 0.0798
AAGTACAG | 0.0787
CAACGCAC | 0.0855
AAACCTAT | 0.0761
AGCTGTTA | 0.0759
AATCGGCT | 0.0686
AGATTCAA | 0.0757
CAGGCTCA | 0.0741
CTTGCTAA | 0.0734
ATAGAGAG | 0.076
GATGGAAA | 0.0794
ATGGGTGA | 0.0866
AACCCTAG | 0.078
CTTGCAGC | 0.0684
ACCCCGTG | 0.108
ACGAATGG | 0.0768
TAGACTGA | 0.0725

Sequence | binding signal (normalized occupancy)
AAATGTCC | 0.0861
TGTGTGAA | 0.0858
GTTTAGAA | 0.0757
CCTCCGAC | 0.0687
CGGAGACA | 0.0704
GTGCCGGA | 0.0753
ACTAGACA | 0.0757
AGACTATC | 0.0737
ACGTGCAG | 0.101
CCACAACG | 0.0749
CGTTATGA | 0.0829
CCTGTTTC | 0.0776
CTCTTATA | 0.0797
CGGTTCGA | 0.0691
AAACCCGA | 0.0792
GCAAACCC | 0.0669
ATAATAAG | 0.0821
AGGCAAAT | 0.0733
ATAAACCG | 0.077
GCCTGATA | 0.0794
CAGCCGAA | 0.0724
CATCCCGG | 0.074
CACATCAG | 0.0776
CATCCACA | 0.0859
AGGCTACG | 0.0723

Sequence | binding signal (normalized occupancy)
GCGTAGCC | 0.0663
ACGAAGCG | 0.0761
GAACCTAA | 0.0715
AGGAGACG | 0.0737
CCGAAGCC | 0.0694
CGAACTCA | 0.0718
AGCATATA | 0.0807
CGCTTCGC | 0.0686
CCTCCTTA | 0.0752
CCAGATTA | 0.0748
AATGGGGG | 0.0803
GTCCACGA | 0.0798
CGAGACAG | 0.0748
AAGGGAGC | 0.0702
GCTAGACC | 0.0672
TAAGACCA | 0.0783
AGACTGAA | 0.0755
ATTCACAG | 0.0727
GTCCCGCA | 0.0741
